From PubChem BioAssay AID1745845 (National Center for Advancing Translational Sciences (NCATS), 2022)
Screen size: about 360,000 compounds; about 2,600 (0.72%) were called active. Inconclusive results, whose numbers are uncertain, are shown with a selection of clear calls. Calls follow the shape of the dose curve; as a rule, active = well fitted inhibition curve with a large enough effect; inconclusive = small, poorly fitted or top-dose-only effect; inactive = no such curve, though single readings can be large or run the other way. Potencies of inconclusive entries are doubtful fits and often do not repeat.

assay: Primary qHTS for Inhibitors of ATXN expression; settings: HEK-293 ATXN2-luciferase reporter, luminescence, 24 h; activity change, negative = inhibition: at 57 µM (top of the series); also: nearly all actives have a fitted effect of over 55% in size
In short: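 qHTS (up to 57 uM final) was run with 24 h compound exposure of reporter cells at 37 °C. Each well was multiplexed: SteadyGlo luminescence measured ATXN2-luciferase expression after a fluorogenic Gly-Phe-AFC viability readout (25 uM final).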
% is scaled to controls: 0 for no effect and ±100 for the full control effect; potency is read from the fitted curve at half-maximal effect; tags tell the direction and shape of the fitted curve.

Potency, inconclusive:
N=c1c(-c2nc3ccccc3[nH]2)cc(C(=O)c2ccco2)nn1-c1ccccc1 35.5 µM [inhibitor, single point], O=C(O)c1cc(/C=C/c2ccc(N3CCOCC3)cc2)nc2ccccc12 16.8 µM [inhibitor, partial curve, poor fit], Cc1c(NC(=O)c2coc(=O)c(Br)c2)c(=O)n(-c2ccccc2)n1C 22.4 µM [inhibitor, partial curve], C=CC[C@@H](CC(=O)N[C@@H](CO)Cc1ccccc1)C(=O)N[C@H](COC(=O)[C@@H](CC=C)CC(=O)OC(C)(C)C)Cc1c[nH]c2ccccc12 39.8 µM [inhibitor, single point], COc1ccc(CN2[C@@H](CC(C)=O)c3ccc(/C=C/C(C)=O)cc3S2(=O)=O)cc1 39.8 µM [inhibitor, single point], CCc1nc2ccc(C(=O)NCCOc3ccc(OC)cc3)cn2c1N(CC)Cc1cccc(Br)c1 25.1 µM [inhibitor, single point], CCCCN(CC)S(=O)(=O)c1ccc(C(=O)Nc2nnc(-c3cccs3)o2)cc1 14.1 µM [inhibitor, partial curve], Cc1ccc(S(=O)(=O)N2CCc3ccccc3CC2)cc1 10 µM [inhibitor, partial curve, poor fit], COc1cccc(-c2cnc3c(NC(C)=O)cc(-c4cccc(NS(C)(=O)=O)c4)cn23)c1 39.8 µM [inhibitor, single point], COc1cc(-c2nc3cccc(C)n3c2Nc2ccc3c(c2)OCCO3)ccc1O 31.6 µM [inhibitor, single point], O=C(N/N=C/c1cc(Br)ccc1O)c1cccc(N2CCCC2=O)c1 3.55 µM [inhibitor, full curve], Cc1cccc(Nc2nc(N)nc(CCl)n2)c1 37.7 µM [inhibitor, single point], CC(C)c1ccc(OCC(=O)NNC(=S)NC(=O)c2ccco2)c(Br)c1 12.6 µM [inhibitor, partial curve], COc1ccc(C(=O)NNC(=S)NC(=O)c2ccccc2)cc1 20 µM [inhibitor, partial curve, poor fit], COCCCCC(=NOCCN)c1ccc(C(F)(F)F)cc1 21.7 µM [inhibitor, partial curve], CC(C)(C)c1ccc(C(=O)N/N=C/c2ccccn2)cc1 20 µM [inhibitor, single point], CCOC(=O)c1cccc(Nc2nc(C(=O)OCC)nc3ccccc23)c1 39.8 µM [inhibitor, single point], Cc1cccc(CSC(Nc2ccc(F)cc2)=C(C#N)C#N)c1 10 µM [inhibitor, partial curve], O=C(Nc1ccc(Cl)cc1)Nc1ccc(Cl)c(Cl)c1 10 µM [inhibitor, full curve, poor fit], O=C(NC(=S)Nc1ccc(N2CCN(C(=O)c3ccccc3)CC2)cc1)c1cccs1 11.9 µM [inhibitor, partial curve], CN(C)c1ccc(C(=O)Nc2nc3c(s2)CCCC3)cc1 39.8 µM [inhibitor, single point], Cc1ccc(C(=O)c2cn(Cc3cccc(F)c3)c3nc(C)ccc3c2=O)cc1 25.1 µM [inhibitor, partial curve, poor fit], O=Cc1ccc(O)c(O)c1O 39.8 µM [inhibitor, single point], O=C(N/N=C/c1ccc([N+](=O)[O-])o1)c1ccncc1 10 µM [inhibitor, partial curve, poor fit], CC(=O)c1cccc(NC(=O)c2cccc3c(-c4cccnc4)coc23)c1 14.1 µM [inhibitor, partial curve, poor fit], Nc1ncnc2c(C3OC(CO)C(O)C3O)c[nH]c12 (stereo not drawn) 0.267 µM [inhibitor, full curve, poor fit], CCCCCCCCCCCCCCCC(=O)O[C@H]1[C@@H](O)[C@@H](O)[C@@H]([C@H](NC(=O)[C@@H]2C[C@@H](CCC)CN2C)[C@H](C)Cl)O[C@@H]1SC 19.3 µM [inhibitor, partial curve, poor fit], O=c1c(Cl)c(Cl)cnn1Cc1ccc(F)cc1 39.8 µM [inhibitor, single point], CCOc1ccc(Nc2nc(N)c3ccccc3n2)cc1 35.5 µM [inhibitor, single point], CC(C)NCC(O)Cn1c2c(c3ccccc31)CCc1c-2cnn1-c1ccccc1 (stereo not drawn) 28.2 µM [inhibitor, single point], COc1ccc(CNC(=O)[C@]2(C)CCC[C@@]3(C)C4CC[C@@]5(C)C[C@]4(CCC32)CC5=O)cc1 (stereo partly drawn) 39.8 µM [inhibitor, partial curve, poor fit], COc1cc(OC)nc(C(NC(=O)C2CCN(Cc3c[nH]c4ccccc34)CC2)c2ccc(Cl)cc2)n1 (stereo not drawn) 39.8 µM [inhibitor, single point], O=C(CSc1nn(-c2ccccc2)c(=S)s1)NC(=O)NCc1ccco1 25.1 µM [inhibitor, partial curve], Cc1nc2ccc(C(=O)Nc3cccc(OCC(=O)N(C)C)c3)cn2c1N(C)CC1CCCCC1 39.8 µM [inhibitor, single point], C=C(C(=O)c1ccccc1)C(C)CC(=O)c1ccccc1 (stereo not drawn) 20 µM [inhibitor, partial curve, poor fit], C=CCn1c(SCC(=O)Nc2nccs2)nnc1-c1cc2cccc(OC)c2o1 15.8 µM [inhibitor, partial curve], C[C@H](CO)N1C[C@H](C)[C@@H](CN(C)S(=O)(=O)c2ccccc2)Oc2ccc(NC(=O)Nc3ccc(C(F)(F)F)cc3)cc2C1=O 35.5 µM [inhibitor, single point], Cc1nnc(C(=O)NC(C)(C)c2nc(C(=O)NCc3ccc(F)cc3)c(O)c(=O)n2C)o1 14.1 µM [inhibitor, partial curve], Cc1nn(Cc2ccccc2Cl)c(C)c1NC(=O)NC12CC3CC(CC(C3)C1)C2 39.8 µM [inhibitor, single point], Cc1ccc(-c2csc3ncnc(Cl)c23)cc1 18.9 µM [inhibitor, single point], CCOC(=O)C1=CN(Cc2cccc(F)c2)S(=O)(=O)NC1CCc1ccccc1 (stereo not drawn) 39.8 µM [inhibitor, single point], COc1ccc(/C=N/Nc2cc(C)nc3ccccc23)cc1 12.6 µM [inhibitor, partial curve, poor fit], Cc1ccc(S(=O)(=O)N(C)C[C@@H]2Oc3ncc(C#CCC(C)C)cc3C(=O)N([C@H](C)CO)C[C@H]2C)cc1 25.1 µM [inhibitor, partial curve, poor fit], CCc1ccc(OCC(=O)N(Cc2ccc(Cl)cc2)C2CCS(=O)(=O)C2)cc1 (stereo not drawn) 39.8 µM [inhibitor, single point], NC(=O)c1ccc[n+](CC(=O)c2ccc(F)cc2)c1 10.6 µM [inhibitor, partial curve, poor fit], Cc1ccc(OCC(O)CN2CCC(Cc3ccccc3)CC2)c(C)c1 (stereo not drawn) 25.1 µM [inhibitor, partial curve, poor fit]

Activity change, negative = inhibition, inactive:
Cc1ccc2nc(-c3ccc(-c4cccc(Cl)c4)cc3)c(NCc3ccccc3)n2c1 -5.32%, C=CCn1c(N)c(C(=O)Nc2ccccc2)c2nc3ccccc3nc21 -13.5%, Cc1cc(C)c(NC(=O)CN2C(=O)CCn3nc(-c4cccn4C)cc32)c(C)c1 -6.23%, O=C(N=Nc1c(O)n(C2OC(=O)c3ccccc32)c2ccccc12)c1ccc(O)cc1 (stereo not drawn) 16.7%, COc1cc(S(=O)(=O)NCc2ccncc2)ccc1Br -22.7%, CCOc1ccc(-c2nn3c(-c4ccc(F)cc4)nnc3s2)cc1 6.6%, Cc1cccc(-c2nc(N3CCN(c4ccc(F)cc4)CC3)c3ccccc3n2)c1 10.6%, O=C(Nc1ccccc1-c1ccccc1)C(c1ccccc1)c1ccccc1 -2.86%, Cc1cccc(NS(=O)(=O)c2ccc(Cl)c(C(=O)Nc3ccccc3C)c2)c1 -21.8%, Cc1ccc(Nc2cc(C)nc(-c3ccccc3O)n2)cc1 39.6%, O=C(Cc1nc2ccccc2[nH]1)N/N=C/c1ccccc1 17.8%, Cc1ccc(Nc2c(F)c(F)c(F)c(F)c2C(=O)O)cc1 2.95%, COC(=O)c1ccc(Cn2nnc3sc4c(c3c2=O)CCC(C)C4)cc1 (stereo not drawn) 48.5%, COc1cc2[nH]c(=O)n(CCCCCC(=O)N3CCN(c4cccc(C(F)(F)F)c4)CC3)c(=O)c2cc1OC -32.5%, COC(=O)[C@@]1(Cc2ccc(OC)cc2)[C@H]2c3cc(C(=O)N(C)C)n(C[C@H](O)CO)c3C[C@H]2CN1C(=O)c1ccccc1 5.02%, CCCn1c(SCC(=O)c2cc(C)n(-c3ccc4c(c3)OCO4)c2C)n[nH]c1=O 6.67%, CCOc1ccc(N2C(=O)Cc3ccccc3C2=O)cc1 1.67%
